Source: PMC10208485
No constants are given. Whether binding was seen depends on the method and setting. Binding seen in cells or lysates may run through a third protein. Some results given as binding are weak or reduced against the parent protein; the word gives no strength.

Chains of the proteins cited; added tags and fusions are not shown. Lines headed by an entry give the natural chain unless they say otherwise; changes in a name come on top. A line that says so, or that is headed by a name, gives the form on record, which may keep a tag or linker.
UniProt Q99816: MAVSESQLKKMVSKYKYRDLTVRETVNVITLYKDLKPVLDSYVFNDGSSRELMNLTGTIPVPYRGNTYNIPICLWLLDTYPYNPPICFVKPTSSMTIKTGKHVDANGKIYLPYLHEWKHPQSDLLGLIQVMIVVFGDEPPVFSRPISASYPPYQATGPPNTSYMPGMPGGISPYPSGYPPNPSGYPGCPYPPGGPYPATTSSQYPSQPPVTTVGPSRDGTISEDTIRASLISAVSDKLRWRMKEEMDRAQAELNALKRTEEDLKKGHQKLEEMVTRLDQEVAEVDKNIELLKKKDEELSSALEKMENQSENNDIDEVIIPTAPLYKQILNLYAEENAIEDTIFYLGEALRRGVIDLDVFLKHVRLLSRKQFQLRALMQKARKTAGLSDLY
Flag-TSG101_(VFND43AAAA) (Q99816, form named): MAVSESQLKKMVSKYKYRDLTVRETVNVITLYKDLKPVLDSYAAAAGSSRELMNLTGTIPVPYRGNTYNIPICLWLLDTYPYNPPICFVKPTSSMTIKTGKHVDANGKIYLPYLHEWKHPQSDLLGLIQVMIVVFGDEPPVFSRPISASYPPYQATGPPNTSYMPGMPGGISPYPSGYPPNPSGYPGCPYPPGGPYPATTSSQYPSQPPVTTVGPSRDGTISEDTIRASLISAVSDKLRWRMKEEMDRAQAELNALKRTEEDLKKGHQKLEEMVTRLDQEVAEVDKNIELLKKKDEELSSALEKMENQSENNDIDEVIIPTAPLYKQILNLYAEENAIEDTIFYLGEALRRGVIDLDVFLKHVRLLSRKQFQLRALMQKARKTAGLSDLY
HA-NEDD4 (P46934-4, form named): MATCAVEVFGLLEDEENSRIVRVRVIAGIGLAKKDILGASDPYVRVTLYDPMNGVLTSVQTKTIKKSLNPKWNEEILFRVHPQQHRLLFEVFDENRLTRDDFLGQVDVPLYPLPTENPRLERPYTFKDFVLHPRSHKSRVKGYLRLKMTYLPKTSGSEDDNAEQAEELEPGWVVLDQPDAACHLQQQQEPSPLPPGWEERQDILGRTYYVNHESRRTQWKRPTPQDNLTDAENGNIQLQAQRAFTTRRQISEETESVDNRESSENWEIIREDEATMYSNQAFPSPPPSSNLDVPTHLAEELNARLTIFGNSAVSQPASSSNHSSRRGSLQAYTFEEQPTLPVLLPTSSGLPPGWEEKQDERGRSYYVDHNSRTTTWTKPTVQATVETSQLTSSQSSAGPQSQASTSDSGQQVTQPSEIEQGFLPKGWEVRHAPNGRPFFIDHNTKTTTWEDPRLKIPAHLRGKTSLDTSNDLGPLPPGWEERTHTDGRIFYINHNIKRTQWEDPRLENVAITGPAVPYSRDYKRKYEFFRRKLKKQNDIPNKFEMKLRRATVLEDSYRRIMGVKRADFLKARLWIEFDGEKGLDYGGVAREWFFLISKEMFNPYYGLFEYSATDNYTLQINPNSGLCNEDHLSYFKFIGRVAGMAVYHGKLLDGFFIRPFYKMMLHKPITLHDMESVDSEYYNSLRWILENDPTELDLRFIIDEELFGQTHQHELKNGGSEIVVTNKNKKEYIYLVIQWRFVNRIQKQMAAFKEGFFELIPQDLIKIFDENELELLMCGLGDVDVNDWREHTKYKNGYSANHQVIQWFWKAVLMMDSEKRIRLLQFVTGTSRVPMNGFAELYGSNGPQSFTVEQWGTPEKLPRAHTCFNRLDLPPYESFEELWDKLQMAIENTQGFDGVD

Legend:
[1] = biological target: N-terminal tagged Myc-HBc (hepatitis B virus capsid protein) (Hepatitis B virus) (UniProt P03146); experiment: co-IP
[2] = biological target: Myc-HBc_(PPAY129AAAA) (Hepatitis B virus) (UniProt P03146); experiment: co-IP
[3] = biological target: Myc-HBcK7R (Hepatitis B virus) (UniProt P03146); experiment: co-IP
[4] = biological target: Myc-HBc_(PP129AA) (Hepatitis B virus) (UniProt P03146); experiment: co-IP
[5] = biological target: Myc-HBc_(K7/96R) (Hepatitis B virus) (UniProt P03146); experiment: co-IP
[6] = biological target: Myc-HBc_(K96R) (Hepatitis B virus) (UniProt P03146); experiment: co-IP
[7] = biological target: wild type HBc (capsid protein) expressed from HBV (Hepatitis B virus) (UniProt P03146); experiment: co-IP; HBc IP and TSG101 IP on lysates of HepAD38 cells and of HBV-infected HepG2-NTCP cells; untagged proteins; IgG IP as negative control

Substance | binding [1] | binding [2] | binding [3] | binding [4] | binding [5] | binding [6] | binding [7]
Flag-TSG101 (from UniProt Q99816 1-390) | binds | no binding | binds | no binding | no binding | no binding | 
Flag-TSG101_(VFND43AAAA) (from UniProt Q99816 1-390) | no binding |  |  |  |  |  | 
tumor susceptibility gene 101 (TSG101), endogenous (from UniProt Q99816 1-390) |  |  |  |  |  |  | binds
HA-NEDD4 (from UniProt P46934-4 1-900) (enzyme) | binds |  |  | no binding |  |  | 
